Source: publication PMC4133157
These are yes or no findings as the source states them, for the method shown. In cells and extracts the contact can be indirect. Some binding calls cover weakened binding; strength is not graded here. Sequences can lack the tags named with a protein.

Sequences of proteins named here, by UniProt entry; tags and fusion partners are left off. Residues count along the entry.
UniProt P34710, residues 22-612: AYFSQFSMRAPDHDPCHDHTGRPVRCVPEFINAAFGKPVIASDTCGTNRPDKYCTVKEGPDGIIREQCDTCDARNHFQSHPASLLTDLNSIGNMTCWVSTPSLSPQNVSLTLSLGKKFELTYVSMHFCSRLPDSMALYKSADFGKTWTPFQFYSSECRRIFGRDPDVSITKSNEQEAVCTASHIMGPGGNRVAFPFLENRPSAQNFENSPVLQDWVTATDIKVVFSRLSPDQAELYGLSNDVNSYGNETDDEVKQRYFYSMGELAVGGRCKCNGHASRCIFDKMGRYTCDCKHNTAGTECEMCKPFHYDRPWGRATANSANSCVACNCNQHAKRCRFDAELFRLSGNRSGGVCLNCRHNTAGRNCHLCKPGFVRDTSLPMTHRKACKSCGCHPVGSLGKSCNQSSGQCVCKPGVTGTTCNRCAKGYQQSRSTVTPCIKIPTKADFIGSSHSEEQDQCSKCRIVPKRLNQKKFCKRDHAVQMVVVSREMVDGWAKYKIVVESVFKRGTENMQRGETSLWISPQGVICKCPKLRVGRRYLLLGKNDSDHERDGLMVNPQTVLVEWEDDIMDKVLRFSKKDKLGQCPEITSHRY

T1: 3XFLAG::UNC-40 (HEK293T) (C. elegans) (UniProt G5EF96)
T1 sequence: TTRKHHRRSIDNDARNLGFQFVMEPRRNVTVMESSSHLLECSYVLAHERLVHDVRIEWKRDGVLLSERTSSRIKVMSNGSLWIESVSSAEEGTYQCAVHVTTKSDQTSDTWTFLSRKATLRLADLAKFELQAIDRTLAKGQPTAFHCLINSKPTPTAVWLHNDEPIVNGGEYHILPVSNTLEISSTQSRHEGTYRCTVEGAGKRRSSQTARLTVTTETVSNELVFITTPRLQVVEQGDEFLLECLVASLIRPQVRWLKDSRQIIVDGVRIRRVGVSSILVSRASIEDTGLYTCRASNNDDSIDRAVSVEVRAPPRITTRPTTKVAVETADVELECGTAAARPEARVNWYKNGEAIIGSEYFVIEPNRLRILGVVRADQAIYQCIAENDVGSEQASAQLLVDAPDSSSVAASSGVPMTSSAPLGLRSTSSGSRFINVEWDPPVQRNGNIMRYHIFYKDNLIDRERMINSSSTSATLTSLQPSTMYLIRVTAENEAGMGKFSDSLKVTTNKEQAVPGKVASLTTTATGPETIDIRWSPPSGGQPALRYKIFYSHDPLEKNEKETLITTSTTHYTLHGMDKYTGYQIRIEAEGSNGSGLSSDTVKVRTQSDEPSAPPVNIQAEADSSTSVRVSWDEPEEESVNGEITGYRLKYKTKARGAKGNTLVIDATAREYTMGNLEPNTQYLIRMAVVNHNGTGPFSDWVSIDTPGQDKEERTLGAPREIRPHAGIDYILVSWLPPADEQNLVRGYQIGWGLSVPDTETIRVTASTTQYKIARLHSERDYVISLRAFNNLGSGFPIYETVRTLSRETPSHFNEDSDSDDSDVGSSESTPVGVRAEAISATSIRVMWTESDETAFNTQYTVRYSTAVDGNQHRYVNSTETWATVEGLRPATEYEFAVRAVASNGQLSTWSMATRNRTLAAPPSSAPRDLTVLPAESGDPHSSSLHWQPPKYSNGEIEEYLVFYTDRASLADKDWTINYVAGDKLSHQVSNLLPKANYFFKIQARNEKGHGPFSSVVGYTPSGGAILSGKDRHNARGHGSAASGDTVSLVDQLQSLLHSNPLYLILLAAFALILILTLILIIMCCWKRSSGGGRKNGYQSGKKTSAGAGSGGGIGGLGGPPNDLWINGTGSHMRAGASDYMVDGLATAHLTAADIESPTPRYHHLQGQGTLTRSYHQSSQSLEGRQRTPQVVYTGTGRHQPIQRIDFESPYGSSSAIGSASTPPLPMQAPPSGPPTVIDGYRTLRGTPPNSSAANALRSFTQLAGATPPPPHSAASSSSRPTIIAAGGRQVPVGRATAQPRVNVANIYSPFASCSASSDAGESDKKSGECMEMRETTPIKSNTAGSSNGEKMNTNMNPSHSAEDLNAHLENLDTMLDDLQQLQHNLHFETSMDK

T2: EVA-1::MYC::3XFLAG::CFP (C. elegans muscle) (C. elegans) (UniProt Q9XU98)
T2 sequence: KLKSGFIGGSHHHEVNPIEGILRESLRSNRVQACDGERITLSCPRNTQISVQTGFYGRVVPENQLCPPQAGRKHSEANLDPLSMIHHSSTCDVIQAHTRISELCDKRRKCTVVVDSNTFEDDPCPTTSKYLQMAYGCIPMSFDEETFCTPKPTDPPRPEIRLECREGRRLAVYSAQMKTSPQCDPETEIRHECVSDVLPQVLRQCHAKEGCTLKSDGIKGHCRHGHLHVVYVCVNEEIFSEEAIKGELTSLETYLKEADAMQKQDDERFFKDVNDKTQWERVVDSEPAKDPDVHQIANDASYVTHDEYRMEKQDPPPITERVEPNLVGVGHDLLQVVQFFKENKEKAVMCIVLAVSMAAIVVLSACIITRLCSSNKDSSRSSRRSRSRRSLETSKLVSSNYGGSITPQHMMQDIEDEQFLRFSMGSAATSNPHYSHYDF

T3: UNC-40::MYC::3XFLAG::YFP (C. elegans muscle) (C. elegans) (UniProt G5EF96)
T3 sequence: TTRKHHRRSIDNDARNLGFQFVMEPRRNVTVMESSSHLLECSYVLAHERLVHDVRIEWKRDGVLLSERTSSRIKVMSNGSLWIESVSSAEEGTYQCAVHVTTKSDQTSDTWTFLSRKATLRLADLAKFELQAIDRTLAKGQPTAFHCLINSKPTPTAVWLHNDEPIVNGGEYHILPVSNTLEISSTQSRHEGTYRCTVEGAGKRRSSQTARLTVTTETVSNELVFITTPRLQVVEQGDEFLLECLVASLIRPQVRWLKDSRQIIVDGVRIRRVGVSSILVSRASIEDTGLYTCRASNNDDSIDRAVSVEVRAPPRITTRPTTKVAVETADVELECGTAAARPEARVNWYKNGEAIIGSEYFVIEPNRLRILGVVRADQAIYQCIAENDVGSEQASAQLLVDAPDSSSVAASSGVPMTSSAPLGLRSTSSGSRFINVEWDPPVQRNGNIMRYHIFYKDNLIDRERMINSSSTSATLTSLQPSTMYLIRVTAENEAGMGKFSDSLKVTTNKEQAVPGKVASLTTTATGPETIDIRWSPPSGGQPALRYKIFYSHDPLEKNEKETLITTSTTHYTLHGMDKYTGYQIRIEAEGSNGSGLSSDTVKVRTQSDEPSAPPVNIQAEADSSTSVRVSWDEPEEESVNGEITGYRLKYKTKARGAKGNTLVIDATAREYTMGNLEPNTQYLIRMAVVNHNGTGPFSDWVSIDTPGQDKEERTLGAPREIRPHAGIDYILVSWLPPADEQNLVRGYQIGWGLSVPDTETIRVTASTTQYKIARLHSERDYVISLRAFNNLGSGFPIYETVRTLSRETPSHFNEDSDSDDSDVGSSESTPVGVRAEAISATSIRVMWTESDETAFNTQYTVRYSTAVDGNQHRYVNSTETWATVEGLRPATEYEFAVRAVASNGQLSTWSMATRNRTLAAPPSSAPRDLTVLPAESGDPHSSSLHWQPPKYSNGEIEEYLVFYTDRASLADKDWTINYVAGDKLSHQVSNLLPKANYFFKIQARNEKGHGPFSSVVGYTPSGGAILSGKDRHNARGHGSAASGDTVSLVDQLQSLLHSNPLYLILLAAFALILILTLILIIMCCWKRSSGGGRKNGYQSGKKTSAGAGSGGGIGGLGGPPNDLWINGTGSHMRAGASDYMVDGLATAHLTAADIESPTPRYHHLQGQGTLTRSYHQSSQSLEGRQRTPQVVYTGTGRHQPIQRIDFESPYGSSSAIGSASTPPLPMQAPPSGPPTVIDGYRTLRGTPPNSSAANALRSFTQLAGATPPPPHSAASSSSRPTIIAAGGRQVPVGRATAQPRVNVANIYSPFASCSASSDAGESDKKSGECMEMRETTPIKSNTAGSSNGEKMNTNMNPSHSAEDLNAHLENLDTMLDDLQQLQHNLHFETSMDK


Key:
[1] = biological target: T1, 3XFLAG::UNC-40 (HEK293T) (C. elegans); test: co-IP; as a1, FLAG-tagged UNC-40 in HEK293 cells with co-expressed UNC-6, or UNC-6 and EVA-1; luciferase-tagged MADD-4 in the immunoprecipitate
[2] = biological target: T2, EVA-1::MYC::3XFLAG::CFP (C. elegans muscle) (C. elegans); test: co-IP; lysate of transgenic worms with tagged proteins expressed in muscles (25 mM Tris pH 7.4, 100 mM NaCl, 1 mM EDTA, 0.25% NP40); anti-FLAG M2 agarose, 3 hrs at 4°C, western blot with anti-GFP
[3] = biological target: T3, UNC-40::MYC::3XFLAG::YFP (C. elegans muscle) (C. elegans); test: as above

binding [1]	binding [2]	binding [3]	Molecule
binds			UNC-6 (co-expressed in HEK293 cells) (from UniProt P34710 22-612) (ligand)
	binds		UNC-40::YFP (C. elegans muscle) (receptor, UniProt G5EF96 23-1415) TTRKHHRRSIDNDARNLGFQFVMEPRRNVTVMESSSHLLECSYVLAHERLVHDVRIEWKRDGVLLSERTSSRIKVMSNGSLWIESVSSAEEGTYQCAVHVTTKSDQTSDTWTFLSRKATLRLADLAKFELQAIDRTLAKGQPTAFHCLINSKPTPTAVWLHNDEPIVNGGEYHILPVSNTLEISSTQSRHEGTYRCTVEGAGKRRSSQTARLTVTTETVSNELVFITTPRLQVVEQGDEFLLECLVASLIRPQVRWLKDSRQIIVDGVRIRRVGVSSILVSRASIEDTGLYTCRASNNDDSIDRAVSVEVRAPPRITTRPTTKVAVETADVELECGTAAARPEARVNWYKNGEAIIGSEYFVIEPNRLRILGVVRADQAIYQCIAENDVGSEQASAQLLVDAPDSSSVAASSGVPMTSSAPLGLRSTSSGSRFINVEWDPPVQRNGNIMRYHIFYKDNLIDRERMINSSSTSATLTSLQPSTMYLIRVTAENEAGMGKFSDSLKVTTNKEQAVPGKVASLTTTATGPETIDIRWSPPSGGQPALRYKIFYSHDPLEKNEKETLITTSTTHYTLHGMDKYTGYQIRIEAEGSNGSGLSSDTVKVRTQSDEPSAPPVNIQAEADSSTSVRVSWDEPEEESVNGEITGYRLKYKTKARGAKGNTLVIDATAREYTMGNLEPNTQYLIRMAVVNHNGTGPFSDWVSIDTPGQDKEERTLGAPREIRPHAGIDYILVSWLPPADEQNLVRGYQIGWGLSVPDTETIRVTASTTQYKIARLHSERDYVISLRAFNNLGSGFPIYETVRTLSRETPSHFNEDSDSDDSDVGSSESTPVGVRAEAISATSIRVMWTESDETAFNTQYTVRYSTAVDGNQHRYVNSTETWATVEGLRPATEYEFAVRAVASNGQLSTWSMATRNRTLAAPPSSAPRDLTVLPAESGDPHSSSLHWQPPKYSNGEIEEYLVFYTDRASLADKDWTINYVAGDKLSHQVSNLLPKANYFFKIQARNEKGHGPFSSVVGYTPSGGAILSGKDRHNARGHGSAASGDTVSLVDQLQSLLHSNPLYLILLAAFALILILTLILIIMCCWKRSSGGGRKNGYQSGKKTSAGAGSGGGIGGLGGPPNDLWINGTGSHMRAGASDYMVDGLATAHLTAADIESPTPRYHHLQGQGTLTRSYHQSSQSLEGRQRTPQVVYTGTGRHQPIQRIDFESPYGSSSAIGSASTPPLPMQAPPSGPPTVIDGYRTLRGTPPNSSAANALRSFTQLAGATPPPPHSAASSSSRPTIIAAGGRQVPVGRATAQPRVNVANIYSPFASCSASSDAGESDKKSGECMEMRETTPIKSNTAGSSNGEKMNTNMNPSHSAEDLNAHLENLDTMLDDLQQLQHNLHFETSMDK
	no binding	no binding	PAT-2::CFP (C. elegans muscle) (receptor, UniProt P34446 26-1226) FNIDTKNVVVHHMAGNYFGYSLDFYHEQKGMPVLVVGAPEAESNNPNLAGIRRPGAVYACSVNRATCREVHVDKMKGNLKKLNGSHLVPIEEKSHQFFGATVRSNDKHDKIVVCAPKYTYFYSKFEVIEPVGTCFYAENGFDNAEEFSSCKQEPARHGRHRLGYGQCGFSAAVPGKKNQNRVFIGAPGVWYWQGAMFSQNIKNQTDRPNTEYGSKEYDHDMMGYSTATGDFDGDGIDDIVAGVPRGNDLHGKLVLYTSKLKMMINLTDEVSTQHGQYCGGSVAVADVNKDGRDDIIMGCPFYTDYGSVKDAKTQERKPQYDVGKVIVMLQTAPGVFGKQIAVVGDDQWGRFGHAVAAAGDLNLDGYNDVIVGAPYAGKNKQGAVYVIHGSKDGVRELPTQKIEGANIGHGNIKSFGFSLTGNEDVDGNGMPDIAVGAWKSGNAAVLLTKPVVTVTGQTEPESALISVEDKNCDVDGKLGKQACKHINTCFKYEGKGDTPNDLEFDLRFNLDDHSPEPRAYFLQKDVKSDRSIKVAQGSKTRDHPSSIEQRVRLEKGRQKCFRHRFFASSTMKDKLSPIHWSVNYTYVESKTGKLRGDKLEPAIDTTVPLSFQNKINIANNCGKDDLCVPDLKVTAVADREKFLLGTQDNTMLINVTVQNGGEDSYETKLYFDVPQGFEYGGIESVGGDGSKSAPACSPTSDEPDSDGKWTFACDLGNPLPANKVVSSVVRVTASSDKPPLAPISINAHVNSSNDEEAHTVADNKVTFTIPVDFKNQLSLNGRSNPEQVDFSMTNKTRVDAFDDNEIGPVVSHLYQISNRGPSEVDSATLDIFWPSFSTEGGHLLYIITEPVVNPPNKGRCRVKQLQNVNPLNLRITNEHVPTEPPVAKTPNEYSREEDDESYEDETTTQSQSTRHQSTQHQTHHQSGPVHVYEKDEEKIRQNTGNWQYVEDKKKKGDYEYIPDDQEYDGDDFEEEDDEDFDRAGSKRVKRNPTPKKKKKGGEHRGEPRSDKARFSDLREAVKLSKEAGGVVDYKGPLSRASVDCNSLRCTHIECDIYDLKEDEFVLVEIFSRLYTNTLVDEKNPGGDISSLALARVTSTKYNLPHKPTLITAVSTNMNAIASEEGRDLPWWLYLLAILIGLAILILLILLLWRCGFFKRNRPPTEHAELRADRQPNAQYADSQSRYTSQDQYNQGRHGQML
